# Test results as given in the supplement of paper PMC4723716.
# ± gives the uncertainty stated by the source. Over roughly 9,900 compounds, “viability index relative to DMSO control” has its median near 1; the lowest 2% begin near 0.85. The list shows a part of the results.
# Tested on: Plasmodium falciparum NF54 stage V gametocytes
# Assay: viability index relative to DMSO control (fraction); higher = less gametocyte killing
# Conditions: 2.5 µM, library set: Broad Institute DOS, incubation time: 72 h
# In short: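 P. falciparum NF54 stage V gametocytes (serum-free medium, 0.75% gametocytemia, 1.25% hematocrit) were exposed to compound at 2.5 µM for 72 hr at 37°C under low oxygen, then stained with MitoTracker Red CMXRos and saponin for one to two hours. Red particles of 20–70 µm2 in one field per well were counted, and the viability index is that count scaled to the plate mean of solvent-only wells.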
row,Compound,viability index
1,COc1cccc(C(=O)Nc2ccc3c(c2)OC[C@@H](C)N(CCc2ccccc2)C[C@H](C)[C@H](OC)CN(C)C3=O)c1,1.07 ± 0.062
2,COc1ccc2c3c([C@H](CO)N(Cc4ccccc4OC)C[C@]33CCN(CC4CC4)CC3)n(C)c2c1,0.9438 ± 0.0079
3,CCc1nc(N2[C@H](C#N)[C@@H](c3ccccc3-c3ccccc3C)[C@H]2CO)sc1C,1.02 ± 0.18
4,C[C@H](NC(=O)C[C@H]1C=C[C@@H](NC(=O)c2cccnc2)[C@@H](CO)O1)c1ccccc1,1.116 ± 0.004
5,Cc1noc(C)c1NC(=O)Nc1ccc2c(c1)C(=O)N([C@H](C)CO)C[C@H](C)[C@H](CN(C)Cc1ccc3c(c1)OCO3)OCCCC[C@@H](C)O2,1.11 ± 0.04
6,CO[C@H](CN(C)C(=O)Nc1ccc(Cl)cc1)[C@H](C)CN(Cc1ccccc1Cl)[C@@H](C)CO,1.07 ± 0.037
7,COC(=O)C[C@H]1C[C@@H]2c3cc(NC(=O)c4ccc5c(c4)OCO5)ccc3O[C@@H]2[C@@H](CO)O1,1.035 ± 0.007
8,N#C[C@@H]1[C@H](c2ccc(-c3cccnc3)cc2)[C@H](CO)N1C(=O)Nc1ccc(F)cc1,0.994 ± 0.033
9,CCCNC(=O)N1[C@H](CO)[C@H](c2ccccc2-c2ccccc2F)[C@@H]1C#N,1.15 ± 0.028
10,C[C@H](CO)N1C[C@H](C)[C@@H](CN(C)S(=O)(=O)c2cn(C)cn2)OCCCC[C@H](C)Oc2ccc(NC(=O)Nc3cccc4ccccc34)cc2C1=O,1.01 ± 0.023
11,C[C@@H]1CCCCO[C@@H](CN(C)Cc2ccc3c(c2)OCO3)[C@H](C)CN([C@H](C)CO)C(=O)c2cc(NS(=O)(=O)c3cn(C)cn3)ccc2O1,1.196 ± 0.0066
12,CCCNC(=O)[C@@H]1[C@@H](CO)[C@@H]2Cn3c(cccc3=O)[C@H]1N2CCC(F)(F)F,1.05 ± 0.024
13,COc1ccccc1C#Cc1ccc2c(c1)[C@@H]1[C@@H](CCN1C(=O)c1ccncc1)[C@H](CO)N2,1.1 ± 0.039
14,Cc1ccc(S(=O)(=O)N2C[C@H]3[C@@H](c4ccccc42)[C@H](CO)N3Cc2cccnc2)cc1,1.06 ± 0.063
15,C[C@H](CO)N1C[C@H](C)[C@@H](CN(C)C(=O)NC2CCCCC2)OCc2ccccc2-c2ccccc2C1=O,0.908 ± 0.14
16,C[C@H](NC(=O)C[C@@H]1CC[C@H]2[C@@H](COc3ccc(NS(=O)(=O)c4ccc(Cl)cc4)cc3C(=O)N2C)O1)c1ccccc1,0.9494 ± 0.0021
17,O=C1C[C@@H](c2ccccc2)C(=O)N[C@H](c2ccccc2)C/C=C\C[C@H](c2ccccc2)N1,1.03 ± 0.024
18,CNC[C@H]1OCc2cnnn2CCCC(=O)N([C@H](C)CO)C[C@@H]1C,1.04 ± 0.05
19,C[C@@H]1CC(=O)N[C@@H](c2ccccc2)C/C=C\C[C@H](c2ccccc2)NC1=O,1.01 ± 0.083
20,C[C@@H]1CN([C@@H](C)CO)C(=O)c2ccccc2-c2ccccc2CO[C@H]1CN(C)S(=O)(=O)c1cccs1,0.999 ± 0.086
21,CO[C@@H]1CN(C)C(=O)c2cc(NC(=O)Cc3ccccc3)ccc2OC[C@@H](C)N(C(=O)c2ccccc2F)C[C@H]1C,1.14 ± 0.06
22,O=C(c1cnccn1)N1CC(=O)N2[C@H](CO)[C@@H](c3ccc(/C=C/c4ccccc4)cc3)[C@@H]2C1,0.999 ± 0.12
23,CNC[C@@H]1OCc2ccccc2-c2ccccc2C(=O)N([C@H](C)CO)C[C@@H]1C,0.997 ± 0.019
24,CC(C)NC(=O)N(C)C[C@@H]1Oc2ccc(NC(=O)c3ccncc3)cc2C(=O)N([C@@H](C)CO)C[C@H]1C,0.966 ± 0.17

row,Compound,viability index
1,COc1cccc(NC(=O)N[C@@H]2CC[C@@H](CC(=O)N3CCN(C)CC3)O[C@H]2CO)c1,1.09 ± 0.029
2,O=C(CCN1CCCCC1)N[C@@H]1CC[C@H](CC(=O)N2CCC(Cc3ccccc3)CC2)O[C@@H]1CO,0.968 ± 0.084
3,C/C=C/c1ccc2n(c1=O)C[C@@H]1N[C@H]2[C@H](C(=O)NC2CCCC2)[C@H]1CO.C/C=C\c1ccc2n(c1=O)C[C@@H]1N[C@H]2[C@H](C(=O)NC2CCCC2)[C@H]1CO,1.04 ± 0.018
4,COc1cccc(S(=O)(=O)Nc2ccc3c(c2)[C@@H]2C[C@H](CC(=O)NC4CCCCC4)O[C@H](CO)[C@@H]2O3)c1,1.07 ± 0.045
5,C[C@H]1CN([C@@H](C)CO)C(=O)Cc2cc(NC(=O)CCC(F)(F)F)ccc2O[C@H]1CN(C)CC1CC1,1.0278 ± 0.00041
6,N#C[C@@H]1[C@H](c2ccc(C3=CCCC3)cc2)[C@H](CO)N1C(=O)c1ccccn1,1.13 ± 0.078
7,O=C(O)C[C@@H]1C=C[C@H](NC(=O)Nc2cc(F)ccc2F)[C@@H](CO)O1,0.947 ± 0.13
8,N#Cc1cccc(-c2ccc3c(c2)[C@@H]2[C@@H](CCN2Cc2ccc4c(c2)OCO4)[C@@H](CO)N3)c1,1.01 ± 0.035
9,CNC[C@@H]1OCc2ccccc2-c2ccccc2C(=O)N([C@@H](C)CO)C[C@@H]1C,0.991 ± 0.057
10,C[C@H](CO)N1C[C@H](C)[C@@H](CN(C)Cc2ccc(C(F)(F)F)cc2)Oc2c(NC(=O)NC3CCCCC3)cccc2C1=O,1.07 ± 0.065
11,C[C@@H]1CN([C@@H](C)CO)C(=O)CCCn2nncc2CO[C@@H]1CN(C)C(=O)c1ccc2ccn(C)c2c1,0.977 ± 0.033
12,CNC[C@@H]1OCc2ccccc2-c2ccccc2C(=O)N([C@@H](C)CO)C[C@H]1C,0.979 ± 0.072
13,COc1ccc2c3c([C@@H](CO)N(C[C@]33CN(C3)C(=O)CC3CC3)C(=O)C3CCCC3)n(C)c2c1,0.932 ± 0.021
14,N#Cc1cccc(-c2ccc3c(c2)[C@@H]2[C@@H](CCN2C(=O)c2ccccc2F)[C@H](CO)N3)c1,1.02 ± 0.063
15,O=C(C[C@H]1CC[C@@H]2[C@H](COC[C@@H](O)CN2Cc2cccc(Cl)c2)O1)NCc1cccc(F)c1,1.08 ± 0.057
16,C[C@H](CO)N1C[C@H](C)[C@H](CN(C)Cc2ccncc2)Oc2ncc(C#CCC3CCCCC3)cc2C1=O,0.861 ± 0.03
17,CN1c2ccc(Br)cc2[C@@H]2[C@@H](CCN2C(=O)c2ccc(F)cc2)[C@@H]1CO,1.088 ± 0.0073
18,COc1ccc2c3c([C@H](CO)N(C[C@]33CN(CC4CCCCC4)C3)C(=O)Cc3ccccn3)n(C)c2c1,0.9893 ± 0.008
19,CO[C@@H]1CN(C)C(=O)c2cc(NC(=O)c3cnccn3)ccc2OC[C@H](C)NC[C@H]1C,1.03 ± 0.053
20,O=C(Nc1ccc2c(c1)[C@H]1C[C@H](CC(=O)N3CCc4ccccc4C3)O[C@H](CO)[C@H]1O2)c1ccc2c(c1)OCO2,1.06 ± 0.05
21,CN(C[C@@H]1N[C@H](CO)[C@H]1c1ccc(C2=CCCC2)cc1)C(=O)c1cccc(F)c1,1.01 ± 0.07
22,COc1ccc2c3c([C@@H](CO)N(Cc4ccccc4)C[C@]33CN(C3)S(=O)(=O)c3ccc(C)cc3)n(C)c2c1,0.998 ± 0.043
23,COc1cccc(C#Cc2ccc([C@@H]3[C@@H](C#N)N[C@@H]3CO)cc2)c1,1.05 ± 0.016
24,N#Cc1cccc(-c2ccc3c(c2)[C@@H]2[C@@H](CCN2C(=O)CN2CCOCC2)[C@@H](CO)N3)c1,1.16 ± 0.1

row,Compound,viability index
1,CCCNC(=O)N(C)C[C@@H]1Oc2cc(C#C[C@H](C)O)ccc2S(=O)(=O)N([C@H](C)CO)C[C@H]1C,1.07 ± 0.064
2,C[C@@H]1CN([C@H](C)CO)C(=O)c2ccccc2-c2ccccc2CO[C@@H]1CN(C)S(=O)(=O)c1cccc(C#N)c1,0.979 ± 0.037
3,CN1C[C@@H]2[C@H](c3ccccc31)[C@H](CO)N2C(=O)c1cccnc1,1.05 ± 0.058
4,Cc1noc(C)c1S(=O)(=O)N(C)C[C@@H]1OCc2cn(nn2)CCCC(=O)N([C@H](C)CO)C[C@@H]1C,1.08 ± 0.043
5,CC(C)NC(=O)N1CC(=O)N2[C@H](CO)[C@H](c3ccc(/C=C/c4ccccc4)cc3)[C@@H]2C1,0.98 ± 0.029
6,O=C(C[C@@H]1CC[C@@H]2[C@H](COC[C@H](O)CN2Cc2cc(F)ccc2F)O1)NCc1ccc(Oc2ccccc2)cc1,1.03 ± 0.0057
7,COc1ccccc1-c1cnc2c(c1)C(=O)N([C@@H](C)CO)C[C@H](C)[C@@H](CN(C)C(=O)CC1CC1)O2,1.08 ± 0.015
8,C[C@H](CO)N1C[C@H](C)[C@H](CN(C)C(=O)Nc2ccc3c(c2)OCO3)OCCCC[C@H](C)Oc2ccc(NS(=O)(=O)c3ccc(F)cc3)cc2C1=O,1.05 ± 0.1
9,CCCC#Cc1ccc([C@@H]2[C@@H](CO)N3C(=O)CN(S(=O)(=O)c4ccccc4C)C[C@@H]23)cc1,1.06 ± 0.081
10,O=C(Cc1ccccn1)N1CC[C@@H]2[C@H]1c1cc(-c3cccc(F)c3)ccc1N[C@@H]2CO,1.099 ± 0.0021
11,CN1c2ccc(-c3ccccc3)cc2[C@H]2[C@H](CCN2C(=O)CC2CC2)[C@@H]1CO,1.03 ± 0.04
12,N#C[C@H]1[C@H](c2ccccc2-c2ccccc2F)[C@H](CO)N1C(=O)Cc1ccccc1,1.05 ± 0.14
13,C/C=C/c1cnc2c(c1)C(=O)N([C@H](C)CO)C[C@@H](C)[C@H](CN(C)C(=O)Nc1cccc(OC)c1)O2,1.02 ± 0.018
14,Cc1ccc(S(=O)(=O)Nc2ccc3c(c2)C(=O)N([C@H](C)CO)C[C@H](C)[C@@H](CN(C)S(=O)(=O)c2cccs2)OCCCC[C@H](C)O3)cc1,1.12 ± 0.06
15,CC(C)NC(=O)N[C@H]1CC[C@@H](CC(=O)NCCCN(C)C)O[C@@H]1CO,0.986 ± 0.083
16,C[C@H](CO)N1C[C@H](C)[C@@H](CN(C)C(=O)[C@@H]2CCCN2C)OCc2ccccc2-c2ccccc2C1=O,0.986 ± 0.046
17,CCCC(=O)N1C[C@H]2[C@@H](c3ccccc31)[C@H](CO)N2C(=O)Nc1ccc(F)cc1,0.96 ± 0.21
18,Cc1ccc(CN2CC(=O)N3[C@H](C2)[C@H](c2ccc(-c4ccccc4F)cc2)[C@@H]3CO)cc1,1.05 ± 0.015
19,COc1ccc(S(=O)(=O)N2CC[C@@H]3[C@H](CO)Nc4ccc(Br)cc4[C@@H]32)cc1,1.096 ± 0.0085
20,C[C@H]1CN([C@@H](C)CO)C(=O)c2ccccc2-c2ccccc2CO[C@@H]1CN(C)C(=O)Nc1ccc(-c2ccccc2)cc1,0.9604 ± 0.0088
21,Cc1cccc(S(=O)(=O)N[C@H]2CC[C@@H](CCNC(=O)Nc3cc(F)ccc3F)O[C@H]2CO)c1,1.1 ± 0.046
22,CO[C@H](CN(C)C(=O)c1cnccn1)[C@@H](C)CN([C@@H](C)CO)S(=O)(=O)c1ccccc1,1.048 ± 0.0082
23,COc1ccc(CNC(=O)C[C@H]2CC[C@H](NC(=O)CN(C)C)[C@@H](CO)O2)cc1,1.1 ± 0.008
